Test results: PubChem BioAssay AID602332 (National Center for Advancing Translational Sciences (NCATS), 2012)
Several values for one entry are separate records, joined by “and”; a condition that tells them apart may be missing. Equal values may be shown once. Hit rate of the full screen: of about 420,000 compounds, about 75 (0.02%) were called active. The call rests on the fitted dose curve; in most records, active means well fitted activation curve with a large enough effect; inconclusive means small, poorly fitted or top-dose-only effect; inactive means no such curve, though single readings can be large or run the other way. Only a part is listed here, and it is no random draw.

Test: qHTS for Inducers of the Endoplasmic Reticulum Stress Response (ERSR) in Human Glioma: qHTS; further: nearly all actives have a fitted effect of over 35% in size; on activation: % of control where 0% means no effect
Conditions: U87-MG GRP78 promoter luciferase reporter, 16 h; activation: active compounds read high
From the text: Primary protein unfolding takes place for many diseases, including diabetes and hypoxia, , and triggers a reaction in the cells called ER stress response (ERSR). ). ERSR is designed as a repair mechanism, but ultimately leads to cell death via apoptosis if conditions triggering protein unfolding persist (1). The molecular clue to ERSR activation is the enhancement of the expression of key molecular chaperones, including the glucose regulated protein (GRP) 78. GRP78 is the main sensor for protein folding and the main actuator of the ERSR.
In a collaboration between the Southern Research Institute and the NIH Chemical Genomics Center, a cell based screen was developed that reliably uses GRP78 as a sensor to identify small molecules as inducers of ERSR. In resting conditions, GRP78 binds proteins and acts as a natural repressor. Once unfolded proteins are present in the ER, GRP78 releases some of the repressors and binds to the unfolded proteins. The release of the repressors executes the ERSR program. Using a human glioma cell line in a miniaturized, luminescent format, a high-throughput screen was developed to identify actuators of the ERSR.
(1) Soboloff, J. and S. A. Berger (2002). "Sustained ER Ca2+ depletion suppresses protein synthesis and induces activation-enhanced cell death in mast cells." J Biol Chem 277(16): 13812-20.
NIH Chemical Genomics Center [NCGC]
NIH Molecular Libraries Probe Centers Network [MLPCN]
Assay Submitter (PI): Maurizio Grimaldi, Southern Research Institute
Stable transfected human glioma cell line, U87-MG, are dispensed at density 1000 cells/well into Greiner white solid bottom 1536-well assay plates. Compounds are transferred via Kalypsys pin tool equipped with 1536-pin array (10nl slotted pins, V&P Scientific, San Diego, CA). The assay plates will be incubated for 16 hours and developed by adding appropriate quantities of the Promega Bright Glo reagent. The plates will be incubated at room temperature for 10 minutes prior to being transferred into a ViewLux high-throughput CCD imager (PerkinElmer), wherein end-point measurements of luminescence are acquired.
Potency means the concentration at half of the fitted maximal effect.

**Q.** Which activation does the source give for COc1cc(C2c3[nH]c4ccccc4c3CC3C(=O)N4C(Cc5c([nH]c6ccccc56)C4c4cc(OC)c(OC)c(OC)c4)C(=O)N32)cc(OC)c1OC (configuration not stated) here?
**A.** The activation was inactive: 5.7%.

**Q.** Which activation does the source give for CC[n+]1c(/C=C(/C)SC)sc2ccccc21 here?
**A.** Its activation is inactive: -3.39%.

**Q.** For C[C@@H](CCc1ccc(O)cc1)NCCc1ccc(O)c(O)c1, which activation is on record?
**A.** Its activation is inactive: -2.2% and inactive: -1.45%.

**Q.** With COc1c(O)cc2oc(-c3ccc(O)c(O)c3)cc(=O)c2c1O as the compound, how does the Potency read?
**A.** Its Potency is active: 20 µM.

**Q.** For Brc1ccc(-c2nc(-c3ccccn3)no2)o1, which activation is on record?
**A.** Its activation is inactive: -16.3%.

**Q.** Which activation does the source give for CC(C)(C)c1ccc(S(=O)(=O)/C=C/C#N)cc1 here?
**A.** Its activation is inactive: -10.9%.

**Q.** For C#C[C@]1(O)CC[C@@H]2[C@H]3CCC4=Cc5oncc5C[C@]4(C)[C@@H]3CC[C@@]21C, which activation is on record?
**A.** Its activation is inactive: -2.71%.

**Q.** With NC(=Nc1ccccc1)NC(=O)c1nc(Cl)c(N)nc1N as the compound, how does the activation read?
**A.** The activation was inactive: -4.22% [middle of 4 runs].

**Q.** With Cc1ccc(CNC(=O)CCc2cn(C)c3ccccc23)cc1 as the compound, how does the activation read?
**A.** The activation was inactive: -1.39%.

**Q.** For COc1ccc(-n2nc3c(N4CCC(C(=O)NCc5ccccc5C)CC4)nnc(C)c3c2C)cc1, which activation is on record?
**A.** Its activation is inactive: -3% and inactive: -17.1%.

**Q.** Which activation does the source give for CN=c1nc(-c2ccccc2)n(-c2ccccc2)s1 here?
**A.** The activation was inactive: 5.81% and inactive: 3.99% and inactive: -14.6%.

**Q.** For Cc1ccc(CS(=O)(=O)c2ncc(Cl)c(C(=O)Nc3ccc(OC(F)F)cc3)n2)cc1, which activation is on record?
**A.** The activation was inactive: -18.5%.

**Q.** Which activation does the source give for O=C(CCl)N1CCN(S(=O)(=O)Cc2ccccc2)CC1 here?
**A.** Its activation is inactive: -16.1%.

**Q.** Which activation does the source give for O=C(N/N=C/C=C/c1ccco1)c1cccnc1 here?
**A.** The activation was inactive: -2.31%.

**Q.** Which activation does the source give for C=C(CC)C(=O)c1ccc(OCC(=O)O)c(Cl)c1Cl here?
**A.** The activation was inactive: 1.55%.

**Q.** For N#C/C(=C\c1ccc(O)c(O)c1)C(=O)Nc1ccccc1, which activation is on record?
**A.** The activation was inactive: 9.78%.

**Q.** For CC(C)N(c1ccccc1)c1ccc(NC(=O)CCl)cc1, which activation is on record?
**A.** Its activation is inactive: -15.2%.

**Q.** Which activation does the source give for O=S1(=O)CCOC[C@H](CC2CCCCC2)N1Cc1ccccc1Br here?
**A.** The activation was inactive: 2.66%.

**Q.** For O=C(CN1C(=O)c2ccccc2S1(=O)=O)c1ccccc1, which activation is on record?
**A.** The activation was inactive: -14.6%.

**Q.** With Brc1c(Br)c(Br)c2[nH]cnc2c1Br as the compound, how does the activation read?
**A.** Its activation is inactive: -7.46% and inactive: -10.6%.

**Q.** Which activation does the source give for COc1ccc2nc(Sc3c([N+](=O)[O-])nc(C)n3Cc3ccccc3)[nH]c2c1 here?
**A.** The activation was inactive: -15.8%.

**Q.** Which Potency does the source give for Cc1ccc(NC(=O)c2cc(S(=O)(=O)N(C)C)ccc2N2CCCC2)cc1F here?
**A.** Its Potency is active: 31.6 µM.

**Q.** With CN(C)c1cccc(C(=O)Nc2nc3ccccc3[nH]2)c1 as the compound, how does the activation read?
**A.** Its activation is inactive: -12.3%.

**Q.** With COc1ccc(-c2coc3cc(O)ccc3c2=O)cc1 as the compound, how does the activation read?
**A.** Its activation is inactive: -4.56% and inactive: -3.91%.

**Q.** With CCOC(=O)/C=C/c1ccc(C(F)(F)F)cc1S(=O)(=O)NC(C)(C)C as the compound, how does the activation read?
**A.** The activation was inactive: -1.97%.

**Q.** With NC(=NC1C2CC3CC(C2)CC1C3)Nc1ccc(I)cc1 (configuration not stated) as the compound, how does the activation read?
**A.** Its activation is inactive: -4.66% and inactive: -3.12%.

**Q.** Which activation does the source give for C#C[C@]1(O)CCC2C3CCC4=Cc5oncc5C[C@@]4(C)C3CC[C@@]21C (some centres not stated) here?
**A.** The activation was inactive: -3.76%.

**Q.** With Cc1cccc(C(=O)O/N=C(\N)c2ccccn2)c1 as the compound, how does the activation read?
**A.** The activation was inactive: -16.5%.

**Q.** Which Potency does the source give for NC(=S)NN=C1CSSC1 here?
**A.** Its Potency is active: 35.5 µM.

**Q.** Which activation does the source give for O=C(Nc1nc2ccc(Cl)cc2s1)c1ccco1 here?
**A.** The activation was inactive: -13.6%.

**Q.** With O=C(c1ccncc1)N1CCC2(CCCN(C(c3ccccc3)c3ccccc3)C2)CC1 as the compound, how does the Potency read?
**A.** The Potency was active: 35.5 µM.

**Q.** For OCCN1CCN(CC/C=C2/c3ccccc3Sc3ccc(C(F)(F)F)cc32)CC1, which activation is on record?
**A.** Its activation is inactive: -7.89% [middle of 4 runs].

**Q.** Which activation does the source give for COc1c(-c2coc3cc4c(cc3c2=O)CC(O)C(C)(C)O4)ccc2c1C=CC(C)(C)O2 (configuration not stated) here?
**A.** Its activation is inactive: -12.6%.

**Q.** Which activation does the source give for CCn1c(/C=C/c2ccc([N+](=O)[O-])o2)nc2ccccc2c1=O here?
**A.** The activation was inactive: -16.1%.

**Q.** Which activation does the source give for Oc1ccc(/C=C\c2cc(O)cc(O)c2)cc1 here?
**A.** Its activation is inactive: -1.05% and inactive: -4.7%.

**Q.** For NNCCc1ccccc1, which activation is on record?
**A.** Its activation is inactive: 4.09% and inactive: 2.6% and inactive: 1.3%.

**Q.** Which Potency does the source give for CC(C)(C)c1ccc(C(=O)NC(=S)NNC(=O)c2cccs2)cc1 here?
**A.** The Potency was active: 14.1 µM.

**Q.** Which activation does the source give for Cn1cc([N+](=O)[O-])c(C(=O)Nc2cc(Oc3ccccc3)cc([N+](=O)[O-])c2)n1 here?
**A.** The activation was inactive: -14.3%.

**Q.** With Cc1ccc2nc(-c3cccc(N)c3)[nH]c2c1 as the compound, how does the activation read?
**A.** Its activation is inactive: -13.7%.

**Q.** For O=C(NC1CCCC1)c1cc(-c2cccs2)on1, which activation is on record?
**A.** Its activation is inactive: 6.06%.

**Q.** For CCCOc1ccc(C(=O)C(CN2CCOCC2)c2ccccc2)cc1 (configuration not stated), which activation is on record?
**A.** The activation was inactive: -14.8%.

**Q.** With CC1CC(C)(C)Nc2ccc(OC(=O)c3ccco3)cc21 (configuration not stated) as the compound, how does the activation read?
**A.** The activation was inactive: -15%.
